From article PMC4336329 (PLoS ONE, 2015)
In all, about 310,000 compounds went through this assay and about 14,000 (4.5%) showed an effect of 50% or more. Effects have a minus sign here. This is one part of the list.

target: human ether-à-go-go-related gene (hERG) potassium channel (human, UniProt Q12809); assay: primary screen, population patch clamp on CHO cells stably expressing hERG
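Further: peak tail current of the secondary pulse compared with the same well before compound.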

Sequence of human ether-à-go-go-related gene (hERG) potassium channel (Q12809 whole entry, looked up): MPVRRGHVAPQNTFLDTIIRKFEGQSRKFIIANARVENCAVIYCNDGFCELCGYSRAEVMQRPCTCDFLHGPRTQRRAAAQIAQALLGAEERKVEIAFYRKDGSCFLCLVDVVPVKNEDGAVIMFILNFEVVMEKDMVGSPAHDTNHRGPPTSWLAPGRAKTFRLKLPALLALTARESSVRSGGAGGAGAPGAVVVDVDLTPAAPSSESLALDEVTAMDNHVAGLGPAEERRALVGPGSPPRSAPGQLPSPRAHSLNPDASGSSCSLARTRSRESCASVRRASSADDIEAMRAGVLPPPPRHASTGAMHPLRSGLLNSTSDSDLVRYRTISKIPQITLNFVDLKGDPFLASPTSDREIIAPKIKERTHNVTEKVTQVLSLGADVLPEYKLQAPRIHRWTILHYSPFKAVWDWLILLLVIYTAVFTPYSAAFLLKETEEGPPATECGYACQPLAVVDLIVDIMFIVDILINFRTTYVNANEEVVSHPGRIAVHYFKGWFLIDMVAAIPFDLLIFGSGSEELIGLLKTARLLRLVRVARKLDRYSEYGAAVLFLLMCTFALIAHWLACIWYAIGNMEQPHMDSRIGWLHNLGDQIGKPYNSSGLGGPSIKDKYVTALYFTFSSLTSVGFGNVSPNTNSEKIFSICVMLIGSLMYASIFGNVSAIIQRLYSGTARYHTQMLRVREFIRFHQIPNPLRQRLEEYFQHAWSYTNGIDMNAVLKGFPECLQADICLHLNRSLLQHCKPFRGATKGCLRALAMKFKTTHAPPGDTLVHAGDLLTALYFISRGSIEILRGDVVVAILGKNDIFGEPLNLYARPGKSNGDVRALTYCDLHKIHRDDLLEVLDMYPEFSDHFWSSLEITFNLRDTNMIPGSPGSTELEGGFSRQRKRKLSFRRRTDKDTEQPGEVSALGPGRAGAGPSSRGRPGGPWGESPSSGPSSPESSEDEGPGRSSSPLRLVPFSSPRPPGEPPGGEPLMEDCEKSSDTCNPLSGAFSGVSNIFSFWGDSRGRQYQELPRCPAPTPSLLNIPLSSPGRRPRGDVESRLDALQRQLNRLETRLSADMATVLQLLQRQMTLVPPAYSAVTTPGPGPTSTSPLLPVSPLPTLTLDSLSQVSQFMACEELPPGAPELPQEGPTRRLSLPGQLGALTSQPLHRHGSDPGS

Point of comparison: `CN(C)S(=O)(=O)c1cccc(NC(=O)CCc2nc3cc(S(=O)(=O)N4CCOCC4)ccc3n2C)c1`, “hERG current change (%, negative = inhibition) at 10uM” value -5.4%. Against it:
- COC(=O)c1[nH]c(C)c(/C(O)=C2\C(=O)C(=O)N(CCN(C)C)C2c2cc(OC)ccc2OC)c1C (stereo not drawn) — higher, 13.6%
- Cc1ccc(NC2=CC(=O)CC(c3ccco3)C2)c(N)c1 (stereo not drawn) — higher, 7.89%
- O=C(O)c1ccc2c(c1)C(=O)N(c1cccc(S(=O)(=O)Nc3cccc(C(F)(F)F)c3)c1)C2=O — higher, 21.1%
- COc1ccc(Cl)cc1S(=O)(=O)n1ccnc1 — higher, 3.07%
- COc1cc(-n2c(=O)c3ccccc3n(CC(=O)c3ccc(Br)cc3)c2=O)cc(OC)c1OC — higher, 0.938%
- Cc1cc(C)nc(N/N=C/c2ccccc2Cl)n1 — higher, 2.48%
- CCCC(C)C(=O)Nc1nc(C)c(-c2csc(Nc3cc(Cl)ccc3C)n2)s1 (stereo not drawn) — higher, 0.0165%
- COc1ccccc1N(Cc1cc(=O)[nH]c2ccccc12)C(=O)C(C)C — higher, -3.83%
- Cc1ccc(C)c(-c2cc(C(=O)N/N=C/c3cccnc3)c3ccccc3n2)c1 — lower, -40.2%
- O=C(Nc1ccccc1)c1cnc[nH]1 — higher, 12.4%
- Cc1ccc(-c2cn(-c3ccccc3)c3[n+]2CCCS3)cc1.[Br-] — lower, -29.1%
- CCOC(=O)c1sc(NC(=O)Cc2ccccc2OC)nc1C — higher, 3.57%
- O=C(NC(=S)Nc1ccc(Oc2ccccc2)cc1)c1ccc(Cl)cc1 — lower, -5.87%
- C#Cc1ccc([C@@H]2C=C(C(=O)N3CCN(Cc4ccc5c(c4)OCO5)CC3)O[C@H](OCCCCO)C2)cc1 — lower, -64.1%
- Clc1cccc(OCCCN2CCCC2)c1Cl — lower, -55.5%
- COc1ccccc1Nc1nc(N)nc(CN2CCC(Cc3ccccc3)CC2)n1 — lower, -84.5%
- O=S(=O)(NCC1CCCO1)c1ccc2oc3ccc(S(=O)(=O)NCC4CCCO4)cc3c2c1 (stereo not drawn) — lower, -12.2%
- CCOC(=O)CSC1=C(C#N)C(c2ccccc2F)C(C(C)=O)=C(C)N1 (stereo not drawn) — lower, -20.3%
- Cn1c(C2=C(O)CN(c3ccccc3)C2=N)nc2ccccc21 — lower, -13.2%
- Cc1cc(C(=O)COC(=O)CC2Sc3ccccc3NC2=O)c(C)n1-c1cccc(C(F)(F)F)c1 (stereo not drawn) — higher, 12.4%
- CCOC(=O)C1CCN(C(=O)COc2ccc(S(=O)(=O)N3CCCC3)cc2C)CC1 — lower, -11.1%
- COc1cc(/C=C/C(=O)OCC(=O)NCCc2ccccc2)cc(OC)c1OC — higher, 34.9%
- O=C(NCCCN1CCOCC1)C(=O)N/N=C/c1c(Cl)cccc1Cl — lower, -8.72%
- Cc1ccc(-c2nc(-c3cccnc3)sc2CC(=O)O)cc1 — higher, 11%
- COc1cc(NC(=O)c2csc3c2CCCC3)ncn1 — higher, 9.87%
- C/C(=N\N1CCN(C)CC1)c1ccc(Cl)c(Cl)c1.Cl — lower, -47.7%
- CC1CCCN(c2ccc(C(=O)Nc3cccnc3)cc2[N+](=O)[O-])C1 (stereo not drawn) — lower, -24.4%
- CN(CCOc1ccccc1)CC(=O)Nc1ccc([N+](=O)[O-])cc1Cl — lower, -24.3%
- COc1ccc(C(=O)c2coc3ccc(O)c(CN4CCCCC4)c23)cc1 — lower, -76.9%
- O=C(c1cccc(F)c1)N1CCN(S(=O)(=O)c2ccc(C(F)(F)F)cc2)CC1 — lower, -16.3%
- CC(C)[C@H](NC(=O)c1ccccc1)C(=O)N1CCc2ccccc21 — lower, -14.2%
- COc1ccccc1/C=C/C=N/n1c(-c2ccc(Cl)cc2)n[nH]c1=S — higher, 16.8%
- CCS(=O)(=O)N1CCCC(c2nc(-c3cccc(OC)c3)no2)C1 (stereo not drawn) — lower, -24.6%
- Cc1ccc(S(=O)(=O)CCC(=O)O)cc1C — lower, -8.61%
- COCCOC(=O)c1[nH]c2c(c1C)C(=O)CC(c1cc(OC)ccc1OC)C2 (stereo not drawn) — higher, 0.379%
- CCN1c2cccc3cccc(c23)S1(=O)=O — lower, -24.3%
- C#CCOCCOCCOCCNc1nc(N2CCN(C(=O)[C@H]([C@@H](C)CC)n3cc(CCCC[NH3+])nn3)CC2)nc(N2CCN(C(=O)[C@H](C)n3cc(CCC[NH+]=C(N)N)nn3)CC2)n1.[Cl-] — higher, 15%
- CN(/C(=N/S(=O)(=O)c1cccs1)c1ccccc1)c1ccccc1 — lower, -14.7%
- COC(=O)N/N=C/C1=CCC2CC1C2(C)C (stereo not drawn) — lower, -16.1%
- COc1ccc(-c2c(C#N)c(N)nc(Sc3ccc(Cl)cc3)c2C#N)cc1 — higher, 14.2%
- Cc1ccc(CNC(=O)c2cccc(OCc3c(C)noc3C)c2)cc1 — higher, 4%
